# The list shows a part of the results. At the low end of the ranking the order means little.
# Molecular target: T1, GST-Rok-C97-191 (UniProt O34857)
# T1 sequence: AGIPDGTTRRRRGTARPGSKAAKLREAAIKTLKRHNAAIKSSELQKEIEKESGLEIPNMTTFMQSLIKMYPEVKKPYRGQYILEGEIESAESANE
# Experiment: protein binding microarray;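 note: rank score from −0.5 (least bound) to 0.5 (best bound)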
# Conditions: Rok is a gene silencer of Bacillus subtilis; high values mean tight binding; most listed sequences are background and not binding sites; double strand, one strand shown
row,Sequence,binding signal
1,GTAGTGAA,0.111 E-score
2,CCATAACC,-0.159 E-score
3,ATGTGCGG,-0.19 E-score
4,GATTAGTA,0.198 E-score
5,CGATAAGA,0.0724 E-score
6,AGAGTCCG,-0.147 E-score
7,AGCTGGTG,0.0512 E-score
8,AAGATACC,0.166 E-score
9,AACCGATA,0.108 E-score
10,CCTGTGGA,-0.131 E-score
11,AGCTTAGG,-0.00777 E-score
12,GGGGGCAA,-0.204 E-score
13,CGTTTTTA,0.114 E-score
14,AACTCAAC,-0.0426 E-score
15,CTGTGTGC,-0.151 E-score
16,ACGTACGA,0.121 E-score
17,GGAGGAAA,-0.0512 E-score
18,CGGAAGTC,-0.139 E-score
19,TGACGCAA,-0.0984 E-score
20,CCCCTCTC,-0.281 E-score
21,ACAAGTAT,0.225 E-score
22,ACCACCCG,-0.247 E-score
23,CCATGCCC,-0.192 E-score
24,CAATATCG,-0.014 E-score
25,CGATGGGA,-0.138 E-score

row,Sequence,binding signal
1,CCCTGGCA,-0.242 E-score
2,AGGACTAG,-0.0267 E-score
3,AAAATTAA,0.31 E-score
4,CAGTGAGG,-0.1 E-score
5,CGAGAGAA,0.148 E-score
6,AAACTGAT,0.116 E-score
7,CCAAAAGA,-0.182 E-score
8,ACACTTGA,0.122 E-score
9,AGGCCACC,-0.16 E-score
10,GTCGAGAC,-0.186 E-score
11,ACTAGAAA,0.4 E-score
12,CTTCTAGC,0.138 E-score
13,GAAGTTAC,0.226 E-score
14,AGAGACGG,-0.057 E-score
15,AAAGAACA,-0.118 E-score
16,CAGTCTAA,-0.037 E-score
17,AGCCACAA,-0.119 E-score
18,ATGACTGA,0.0364 E-score
19,GATTTCCC,-0.109 E-score
20,CTACCCCC,-0.094 E-score
21,CGGCTAAG,-0.0676 E-score
22,ACTGAGAC,-0.114 E-score
23,CAGTGAGC,-0.162 E-score
24,GACCTAAC,-0.0699 E-score
25,GCTGGTTA,0.0982 E-score

row,Sequence,binding signal
1,AAACAACG,0.09 E-score
2,GCACAAAA,0.0876 E-score
3,CCGGCTAC,-0.0581 E-score
4,AATCTATA,0.4 E-score
5,ACGTAATA,0.252 E-score
6,GATAAGCA,0.0731 E-score
7,CCCTGGCC,-0.377 E-score
8,GAAACCCA,-0.155 E-score
9,ATGTAAGA,0.000177 E-score
10,CATGTGCG,-0.239 E-score
11,ACTTAAAG,-0.106 E-score
12,CGGTAGAG,-0.0194 E-score
13,AGCCGCCC,-0.246 E-score
14,AGGCTAGG,-0.14 E-score
15,TCGCATAA,0.137 E-score
16,ATCCGCGC,-0.191 E-score
17,CCTATTCA,-0.0964 E-score
18,ATTTTAAA,0.164 E-score
19,AGCGGTTG,-0.0704 E-score
20,AAGGGACG,-0.3 E-score
21,AAGCTTAC,-0.0731 E-score
22,TCCCCAAA,-0.0772 E-score
23,AATGTTAG,0.108 E-score
24,AAATAAGA,0.0906 E-score
25,AGGCAGAT,-0.285 E-score

row,Sequence,binding signal
1,CACAGCCC,-0.0548 E-score
2,AAATAGGC,0.0501 E-score
3,GTATCACA,0.201 E-score
4,TGTCCGAA,-0.147 E-score
5,CAATTAAA,0.172 E-score
6,TACGTCCA,0.0811 E-score
7,ATATATGG,0.279 E-score
8,GCACGGCC,-0.282 E-score
9,CCCCCTCA,-0.304 E-score
10,ATAGTGCC,-0.097 E-score
11,AGATAGTA,0.376 E-score
12,GAGCTATA,0.122 E-score
13,AGAAACTC,0.0994 E-score
14,GAGGAGGA,-0.348 E-score
15,GTAGGCTA,-0.14 E-score
16,CGCACAGA,-0.0699 E-score
17,ATAGACTC,-0.0758 E-score
18,ACCGAGAT,-0.0432 E-score
19,CCGTCAGG,-0.247 E-score
20,GTAAACAA,-0.0801 E-score
21,ACGTGCGA,0.0156 E-score
22,ACGCACTC,0.0103 E-score
23,CCATTTGA,-0.134 E-score
24,CCGCACAA,-0.16 E-score
25,AAGGCCCC,-0.375 E-score

row,Sequence,binding signal
1,GATCGACA,-0.145 E-score
2,ACGAGGTC,0.108 E-score
3,CCGTTCTC,-0.149 E-score
4,CACAAAAG,-0.0713 E-score
5,GGCCATTA,0.12 E-score
6,GCGGGCAC,-0.232 E-score
7,CCGCATGA,-0.456 E-score
8,CTTTAGTA,0.244 E-score
9,AACACGAT,0.0135 E-score
10,CAGTATAC,0.0992 E-score
11,ATCACTTA,0.18 E-score
12,CCGCCAGC,-0.235 E-score
13,CGACTGAA,-0.021 E-score
14,CAGAGCGA,-0.219 E-score
15,ACGAGCGC,-0.0998 E-score
16,CTTTACAC,-0.0852 E-score
17,CGGAGTAA,-0.0311 E-score
18,CCATCCGG,-0.207 E-score
19,AATGTTCG,-0.0868 E-score
20,ACTCCTAA,0.0798 E-score
21,GAACCGGA,-0.255 E-score
22,CATGCAGA,-0.0987 E-score
23,ATTGCCTC,-0.0892 E-score
24,GCACTATA,0.0612 E-score
25,GCACAAGA,-0.2 E-score

row,Sequence,binding signal
1,GCGCCCCA,-0.367 E-score
2,CATAATGA,0.175 E-score
3,AGCCGGCA,-0.106 E-score
4,TACGACAA,0.151 E-score
5,ATCCTGGA,-0.00701 E-score
6,CGACTAGA,0.137 E-score
7,CTGCGTAA,-0.147 E-score
8,TACCCGGA,0.125 E-score
9,GAAGCAGA,0.0311 E-score
10,AAAACAAT,0.0544 E-score
11,GTTACCTA,0.147 E-score
12,GCTGCATA,0.00474 E-score
13,ACTGGTAG,0.176 E-score
14,CTAACTAC,0.348 E-score
15,AGCCTGAG,-0.28 E-score
16,TAAATCCA,0.133 E-score
17,TCTGGCCA,0.0184 E-score
18,CAAGTTGG,-0.149 E-score
19,GTGGGTTA,-0.0431 E-score
20,CATCGTCG,0.0297 E-score
21,GCCCGTAA,-0.151 E-score
22,ATGCTTAG,0.0314 E-score
23,AATCCAGA,-0.0632 E-score
24,GGTGTTAC,0.0806 E-score
25,CCGGAGCG,-0.122 E-score

row,Sequence,binding signal
1,CCATCCTA,-0.027 E-score
2,ACCCACGG,-0.16 E-score
3,GTAAGTTA,0.153 E-score
4,GCAACGAC,-0.0711 E-score
5,CCAATAGC,0.0307 E-score
6,ATCGCGGG,-0.147 E-score
7,ACCAACTG,-0.0926 E-score
8,AGTGGAGA,-0.134 E-score
9,TATGTTCA,0.164 E-score
10,CTGGCATA,0.0311 E-score
11,AAGAGCAC,-0.0613 E-score
12,ATACCCCC,-0.134 E-score
13,CCACGGGA,-0.126 E-score
14,AAGCCCGG,-0.207 E-score
15,GCTATCCC,-0.0307 E-score
16,AGTAAACC,0.0774 E-score
17,CGCCCTGC,-0.272 E-score
18,AGGATGTC,-0.179 E-score
19,CCTTTCGA,-0.357 E-score
20,GTTTTGAA,-0.0913 E-score
21,ACAGAAAT,0.145 E-score
22,AAACAATG,-0.00307 E-score
